Measurements taken from PubChem BioAssay AID1508624 (National Center for Advancing Translational Sciences (NCATS), 2021).
Hit rate of the full screen: of about 48,000 compounds, about 120 (0.25%) were called active. Not shown: some 4% with an inconclusive outcome. Calls follow the shape of the dose curve; as a rule, active = well fitted activation curve with a large enough effect; inconclusive = small, poorly fitted or top-dose-only effect, or another doubt; inactive = no such curve, though single readings can be large or run the other way. Some of the results follow.

test: Primary qHTS for Identification of Small Molecule Activators of Huntingtin-Antisense Promoter Activity; conditions: HEK293 HTT-AS promoter firefly luciferase reporter, 24 h; series mostly up to 57.5 µM; activity change, positive = activation: at the top concentration; also: nearly all actives have a fitted effect of over 55% in size
How it was run: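 HEK293 cells carrying firefly luciferase reporters were seeded at 2,500 per well in Opti-MEM and cultured for 24 h. They were then treated with compounds at up to 57.5 uM final for 24 h at 37 degrees C before Dual-Glo luminescence readout.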

Activity change, positive = activation, inactive:
O=C(O)c1cc(O)c2c(c1)C(=O)c1cccc(O)c1C2=O -7.78% [at 116 µM, percent change from vehicle, -100% = no light]
CC1=C(C(=O)NCc2ccc(C)cc2)C2(CCCCC2)OC1=O -1.91%
Cc1ccc(Nc2c(F)cccc2Cl)c(CC(=O)O)c1 0.366%
Cc1ccc2cccc(NC(=O)C(C)Oc3ccc(C)c(C)c3)c2n1 (configuration not stated) -21.3%
Cc1noc(Cn2c(=O)c3ccccc3n(CC(=O)Nc3ccc(Cl)cc3)c2=O)n1 -16%
O=C(Nc1cc(Cl)ccc1Cl)C1(c2cccs2)CCOCC1 -20.9%
O=C(CSc1nc2ccccc2nc1Cc1ccc(Cl)cc1)N1CCN(c2ccccc2F)CC1 -3.06%
Cc1ccccc1OCC(=O)Nc1ccc2nc(SCCOc3ccccc3)sc2c1 -1.87%
Cc1ccc(C)c(N2CCN(C(=O)CCCCCn3c(=O)[nH]c4ccccc4c3=O)CC2)c1 2.6%
Cc1ccc(C)c(Cn2c(SCC(=O)N(C)Cc3ccccc3)nc3ccccc32)c1 -21.3%
CN(C(=O)CSc1nc2ccc(NC(=O)CCc3ccccc3)cc2s1)c1ccccc1 -41%
CCOc1ccc(-c2cc(C(=O)N3CCN(c4cccc(C)c4)C(C)C3)c3ccccc3n2)cc1 (configuration not stated) 0%
CCc1ccccc1NC(=O)C(=O)NCC(c1cccnc1)N1CCc2ccccc21 (configuration not stated) -29%
Cc1ccc(-c2nnc(Nc3ccc(S(N)(=O)=O)cc3)c3ccccc23)cc1S(=O)(=O)N1CCOCC1 3.24%
COc1ccc2c(c1)Cc1sc(NC(=O)c3cccc(F)c3)nc1-2 13.2%
CCOC(=O)c1ccc(NC(=O)C2CC(=O)N(c3ccc(C(C)C)cc3)C2)cc1 (configuration not stated) -10.2%
CCc1cccc(NC(c2nnc(-c3ccccc3)o2)c2ccc(F)cc2Cl)c1 (configuration not stated) -33.3%
Cc1ccc(NC(=O)NCC2CCN(Cc3cccc(Cl)c3)CC2)cc1Cl -12.7%
COc1cccc(CNC(=O)CSc2nc3ccccc3nc2Cc2ccc(C)cc2)c1OC -14.1%
CCCn1c2ccccc2c2cnn(CC(=O)NCCc3ccc(OCC)c(OCC)c3)c(=O)c21 -26.6%
Cc1ccc(NC(=O)CCNS(=O)(=O)c2ccc3c(c2)CCN3C(=O)C2CC2)c(Cl)c1 -29.3%
CCOc1ccccc1NC(=O)CSc1ncc(S(=O)(=O)c2ccc(C(C)(C)C)cc2)c(=O)[nH]1 -13.9%
CCCCNC(=O)CCn1c(=O)c2cccn2c2ccc(F)cc21 -15.9%
COc1ccc(Nc2ncc(C(=O)Nc3cc(Cl)c(OC)cc3OC)c3ccccc23)cc1 -24.2%
O=C(CCS(=O)(=O)c1nc(-c2ccc3c(c2)OCO3)cc(C(F)(F)F)n1)Nc1ccc(F)c(Cl)c1 -75.6%
CN(C)c1ccc(C(CNS(=O)(=O)c2ccc(F)cc2)N2CCCC2)cc1 (configuration not stated) -4.39%
O=c1c2cc3c(cc2n(Cc2cccc(Cl)c2)c(=O)n1Cc1nc(-c2ccccc2)no1)OCO3 -15.9%
